± gives the standard deviation of the averaged measurements. The list shows a part of the results.
tested on: PfAP2-EXP AP2 domain (GST-tagged); assay: gcPBM binding intensity (ln(normalized median fluorescence intensity)); higher = stronger DNA binding
How it was run: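 Alexa488 anti-GST antibody, scanned at 488 nm, detected GST-tagged P. falciparum DNA-binding domains that had been expressed in E. coli and incubated for 1 h on an Agilent 4 × 180k array. The array carried primer-extended double-stranded 36-bp intergenic genomic probes and negative controls. Binding intensity is the highest Masliner-normalised natural-log median intensity across replicate spots of either orientation of each probe.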

Sequence	gcPBM binding intensity (ln)
TACAACCTTTAGACAAGTACAAGAATTATATGTGGC [XGTACX_site4581]	8.71 ± 0.4
ATACAATTCTTACATTGTACTTTTTTTTTTTATCAC [XGTACX_site6327]	8.47 ± 0.42
TGTATATCACATGAGAGGTGGAGATGGGGATAAATA [CACACA_negctrl_site1148]	8.82 ± 0.43
TTAATATGAATTATTACATGCAACTAAATATATTTA [TGCATGCA_site490]	8.74 ± 0.33
TAATACAGATTAAAAGGTACACTTATTTGGTATTAT [XGTACX_site4966]	8.46 ± 0.34
ACAAAATATATAGACACACAAACACAAATATGTTTT [CACACA_site3016]	8.21 ± 0.3
TCTATACCTATTCTTACACACATATGTATAAATATA [CACACA_site6407]	8.84 ± 0.45
TTGACAACTCTTTTCATACACACAAAAAAAAAAAAA [CACACA_site2362]	8.4 ± 0.51
ACTAAAAAAATAAACACACAGATTTATATAATATAT [CACACA_site4884]	8.38 ± 0.39
TATTAATGATAAGAATATTTTATATGATACATGCAT [CACACA_negctrl_site923]	8.68 ± 0.41
TATCTTTATATATAGTGTACACATTAAACAAATCTC [XGTACX_site7381]	8.78 ± 0.16
TATAAATAAATATGTACACACATATATACCTTTCAT [CACACA_site7291]	8.46 ± 0.34
AATAATTAACAAAAAAAAAAAAAAAAAAAAAAAAAA [GTGCAC_negctrl_site255]	7.96 ± 0.49
TATGTATTATATATTTGTACTCATTCTAATTCCTTC [XGTACX_site7294]	8.66 ± 0.38
TATATTAATGTTCATAGTACGTATGATTAGGAAAAA [XGTACX_site616]	8.65 ± 0.38
ACATATATGTATAATACACACACTAATATATAATTG [CACACA_site1966]	8.52 ± 0.46
ATTTAAAAAAAAACGGAATTTTTTTTTTTTTTAAAG [XGTACX_negctrl_site91]	8.06 ± 0.51
ATATTCATATATTTACGTACATACATTTATATATTT [XGTACX_site7644]	8.85 ± 0.37
GGAAAGACAGTTCACAGTACCCAGGAAATCTGCGGA [XGTACX_site4933]	8.61 ± 0.51
TTTAGTTTTTATATAGCACACATATTGTGATTATGT [CACACA_site8316]	8.55 ± 0.22
AATTTATAAAAGAAGAGGACACATATAAATATAAAT [XGTACX_site59]	8.86 ± 0.38
GAAAATAACTAAAATTGTACAAAGAAACATATATTT [XGTACX_site6484]	8.79 ± 0.56

Sequence	gcPBM binding intensity (ln)
AGAAAAAAATAATCATCACACACGGAGAATGTCCAA [CACACA_site2314]	8.47 ± 0.57
TATTAAAGCACCCATGCACACACACTAAGGAAAAGA [CACACA_site7961]	9.47 ± 0.18
GATATTCATTATATATGTACATATATGTAATATATA [XGTACX_site2210]	8.55 ± 0.24
TATATATATCTGTATACACACATACAAATATGTAAA [CACACA_site5950]	8.4 ± 0.29
TAATAATATATAAAAAGTACATAACAAGATATGAAA [XGTACX_site4921]	8.69 ± 0.33
ATCATATGTATGGTGGTGCATTATGCATGAATTTTA [GTGCAC_site9798]	9.12 ± 0.071
ATATATTTTTTTTTTTCACACATTAGGATTCATATA [CACACA_site5758]	8.46 ± 0.5
TTTATCTAAATATGTGTGCACTCGTTAATTTTTTTT	8.96 ± 0.057
TATATAAACCCACCTACACACACAACGTAAATGCAT [CACACA_site8702]	9.26 ± 0.69
ATTATTATATTCAAATGTACTTAATAAACATTTTAA [XGTACX_site3023]	8.2 ± 0.26
TAAAGAATATTATAAACACACACTTTATAAAGAATT [CACACA_site114]	8.5 ± 0.37
TGTTGATTTATCCTGTGTACGGATATATATCTTTCA [XGTACX_site7826]	8.63 ± 0.38
TATATAAAGAAACACACACACACCTTATAATTATTA [CACACA_site4062]	8.79 ± 0.35
GTAATTATACATATTACACACTCTCTTGATCTTTTT [CACACA_site7756]	8.66 ± 0.33
AAAAAAAAAACACGCGCACACACACCCACCCACCCA [CACACA_site8689]	9.41 ± 0.62
ACTAATAAAGGTGTAATACACACTATAAAAAGGAAT [CACACA_site1124]	8.88 ± 0.57
ATATATAATATATATTGTACAGGTATGTCTATAAAT [XGTACX_site2243]	8.86 ± 0.35
TTTTTTCTTTATTATGGTACGTATAAAAAAATTATA [XGTACX_site3433]	8.35 ± 0.3
GAGAGGTATCAAAAATGTACACATATATATATGTAT [XGTACX_site5611]	8.52 ± 0.38
ATTATTCCATATTATTGTACTTTAATTTTTTAAACC [XGTACX_site2960]	8.79 ± 0.42
TTTTTATCAACAAATAATACCATAACTCATATTTAT [CACACA_negctrl_site740]	8.22 ± 0.35
TATAAAATTTTTAAAAGTACATATTTTACATAATAC [XGTACX_site2193]	8.38 ± 0.26

Sequence	gcPBM binding intensity (ln)
AGAAAACATATGTTTTGTACTTAAGAAAAAAAAAAA [XGTACX_site4231]	8.59 ± 0.53
TAACATATGGGACACACATGCAACTGTTATATGTCC [TGCATGCA_site959]	8.76 ± 0.35
AACAGGTCATAATTTACACACTATATATTTTATTAT [CACACA_site670]	8.8 ± 0.43
TATATCATATAAAACCGTACATACATACTTAATTGT [XGTACX_site6822]	8.51 ± 0.49
TGATTAATTTTTAAATGTACTTAAAAATATACTTAT [XGTACX_site2872]	8.21 ± 0.33
ATCTATATTCATAATACACACATTCTGTAGCATTAT [CACACA_site7058]	8.64 ± 0.38
AAAAATAAATAAATATGTACATATATACATATATAT [XGTACX_site5892]	8.31 ± 0.32
AAAAAAAAATTAAAATGTACACATAAAAAAAAAAAA [XGTACX_site794]	8.64 ± 0.42
TTTTATATGTTATATACACACATATAAATAAATATA [CACACA_site7418]	8.33 ± 0.35
AAATAAAAAAAAGCCTGTACATGTTCATAAATTTTT [XGTACX_site7925]	8.43 ± 0.4
ATATATATTTATAATCGTACGTACCTAACAATACAA [XGTACX_site4510]	8.91 ± 0.33
GAATATTAAATATTATCACACACATAATTATTTCCA [CACACA_site8730]	8.49 ± 0.33
TCCTTATTTCATATTTTTAAATAATACAAAAAAAAA [CACACA_negctrl_site773]	8.06 ± 0.38
CTTAAATTAATTTGGGTGCATATATTTGTACACATT [GTGCAC_site9948]	8.99 ± 0.31
TTCTATTTATATGTGGGTACTAATTTTTTTTCTTTT [XGTACX_site7104]	8.6 ± 0.28
TGAATAAAATATTATACACACATATGTATATAACAT [CACACA_site974]	8.24 ± 0.35
TTAATTTTTTTTTAAACACACATTTTTTTATTTAAG [CACACA_site2738]	8.21 ± 0.57
GTTATAAATAATAAATAAATAATCAAATGAAGAATG [CACACA_negctrl_site653]	8.71 ± 0.39
TATTAATTTTTTTTTTTTTTTTTTTTTTTTTTTTTT [CACACA_negctrl_site1329]	9.15 ± 0.085
AGGAGGATAGTTCACAGTACCCAGGAAATCTGCGGA [XGTACX_site4928]	8.58 ± 0.54
TTTATTTTCCAAAGGGTGCACATAGTTAAAACGATA [GTGCAC_site9855]	9.86 ± 0.88
TATGCAATAAAATATACACACAATATACTTATATAT [CACACA_site7691]	8.44 ± 0.22

Sequence	gcPBM binding intensity (ln)
AGAATAAATATGTGGTGTTATAGTATTAATGTTAAT [TGCATGCA_negctrl_site62]	8.44 ± 0.33
AATAAATACACATACACACACGACGCTAGTATATGT [CACACA_site6627]	8.29 ± 0.4
ATAAATATACCAATCGGTACACATTTATACAAACAA [XGTACX_site7484]	8.36 ± 0.12
GCTATAAATATAATCACACATAAATATATAATATAT [CACACA_site5144]	8.23 ± 0.29
ATTTACCTATATATTTGTACTTACATAATGCTACCT [XGTACX_site2693]	8.96 ± 0.43
TAAAGAGAGACATCAACACACATACGTATGTATAGA [CACACA_site4896]	8.58 ± 0.49
AATATATTGTTTCCTGATATTAAATTCAATTTAATG [GTGCAC_negctrl_site22]	8.48 ± 0.46
TAAAAAAAAATATATAAACACACATATTTATATACA [CACACA_site8469]	8.13 ± 0.33
ATTCTATATGAAAAATGTACAAATAAAAATTCTAAG [XGTACX_site8900]	8.46 ± 0.33
CCAATGTTTTCTTGTGTACACATCATTAAAGAAAAA [CACACA_site5300]	9.02 ± 0.099
CATGAAAATATTATGTGTACTTAATGCACATTCAAA [XGTACX_site1952]	8.55 ± 0.11
CACGCATACAGACACACACACACACCGATATATATA [CACACA_site8113]	8.71 ± 0.36
AAAAAAAAACAAAAAAGTACAAAATAAAAATACGTT [XGTACX_site4566]	8.71 ± 0.58
CTCTTCATATATAATTGTACACACAAAAACGACATT [XGTACX_site4287]	9.04 ± 0.57
AATAAATATATACATTGTACATATATAATATATATA [XGTACX_site1458]	8.41 ± 0.092
TAAATTATAATATGCACACAAAATGTTATATTAAAA [CACACA_site376]	8.13 ± 0.23
TATATATATTTTGGCTGTACATCAGCGTATATTTTT [XGTACX_site3233]	8.46 ± 0.29
CCTATCCATGCATATACACACATATCTATTTATATA [CACACA_site6886]	8.99 ± 0.35
CATATATACGCATACACACACACACCCACACCCACA [CACACA_site1725]	8.79 ± 0.52
TACAAATATATATGCACACACATATACATACAGATA [CACACA_site5238]	8.41 ± 0.35
TGATGAAAATCTACATGAATGTTTTTATATCTATAT [GTGCAC_negctrl_site139]	8.25 ± 0.31
TATTTATACCTATACACACACACACGGATATTTATA [CACACA_site7123]	8.63 ± 0.53
